# Assay results: the RNAGym collection of RNA variant scans (doi:10.7554/elife.90254)
# The source gives no read counts; variants with many changes may rest on few reads.
# B1: OR4K15 (parent)
# chain: GUUAACGGUCAUAGGCCAUGGAAACUAGGAGCACCAUUUCGCUGCCAGUGAAGAAAUGAACAAAGAAAAUCUGGGCCAGGCAGGCAUCAAAAGAAAUAGUCUUGCGCUCAACCAGAAAGUCUGUAAUCAUUUUAAGGGUA
# Variants of: B1
# Assay: self-cleavage, relative activity (ratio to wild type); higher = more cleavage; in vitro, sequencing; the parent is a self-cleaving ribozyme
row,Variant,self-cleavage
1,GUUAACGGUCAUAGGCCAUGGAAACUAGGAGCACCAUUUCGCCGCCAGUGAAGAAAUGGACAAAGAAAGUCUGGGCCAGGCAGGCAUCAAAAGAAAUAGUCUCGCGCUCAACCAGAAAGUCUGUAAUCAUUUUAAGGGUA [U43C A59G A69G U103C],0.72
2,GUUAACGGUCAUAGGCCAUGGAAACUAGGAGCACCAUUUCGCCGCCAGUGAAGAAGUGAACAAAGAAAAUCUGGGCCAGGCAGGCAUCAAAAGAAAUAGUCUUGCGCUCAACCAGGAAGUCUGUAAUCAUUUUAAGGGUA [U43C A56G A116G],0.11
3,GUUAACGGUCAUAGGCCAUGGAAACUAGGAGCACCAUUUCGCAGCCAGUGAAGAAAUGAACAAAGAAAAUCUGGGCCAGGCAGGCAUCAAAAGGGAUAGUCCUGCGCUCAACCAGAAAGUCUGUAAUCAUUCUAAGGGUA [U43A A94G A95G U102C U132C],1.54
4,GUUAACGGUCAUAGGCCAUGGAAACUAGGAGCACCAUUUCGCAGCCAGUGAAGAAAUGAACAAAGAAAAUCUGGGCCAGGCAGGCAUCAAAAGAAAUAGUCUUGCGCUCAACCAGAAUGUCUGUAAUCAUGUUAAGGGUA [U43A A118U U131G],0.29
5,GUUAACGGUCAUAGGCCAUGGAAACUAGGAGCACCAUUUCGCAGCCAGUGAAGAAAUGAACAAAGAAAAUCUGGGCCAGGCAGGCAUCAAAAGAAAUAGUCAUGCGCUCAACCAGAAAGCCUGUAAUCAUUUUAAGGGUU [U43A U102A U120C A140U],0.34
6,GUUAACGGUCAUAGGCCAUGGAAACUAGGAGCACCAUUUCGCAGCCAGCGAAGAAAUGAACAGAGAAAAUCUGGGCCCGGCAGGCGUCAAAAGAAAUAGUCUUGCGCUCAACCAGAAAGUCUGUUAUCAUUUUAAGGGUA [U43A U49C A63G A78C A86G A125U],0.2
7,GUUAACGGUCAUAGGCCAUGGAAACUAGGAGCACCAUUUCGCAGCCAGUGAAGAAAUGAACAAAGAAAAUCUGGGCCAGGCAGGCAUCAAAAGGAAUAGUCUUGCGCUCAACCAGAAAGUCUGUAAUCAUUCUAAGGGUA [U43A A94G U132C],1.32
8,GUUAACGGUCAUAGGCCAUGGAAACUAGGAGCACCAUUUCGCCGCCAGUGGAGGAAUGAACAAAGGAAAUCUGGGCCAGGCAGGCAUCAAAAGAAAUAGUCUUGCGCUCAACCAGAAAGUCUGUAAUCAUUUUAAGGGUA [U43C A51G A54G A66G],1.2
9,GUUAACGGUCAUAGGCCAUGGAAACUAGGAGCACCAUUUCGCCGCCAGUGGAGAAAUGAACAAAGAAGAUCUGGGCCAGGCAGGCAUCAAAAGGAAUAGUCUUGCGCUCAACCAGAAAGUCUGUAAUCAUUUUAAGGGUA [U43C A51G A68G A94G],0.17
10,GUUAACGGUCAUAGGCCAUGGAAACUAGGAGCACCAUUUCGCCGCCAGUGAAGAGAUGAACAAAGAGUAUCUGGGCCAGGCAGGCAUCAAAAGAAAUAGUCUUGCGCUCAACCAGAAAGUCUGUAAUCAUUUUAAGGGUA [U43C A55G A67G A68U],0.95
11,GUUAACGGUCAUAGGCCAUGGAAACUAGGAGCACCAUUUCGCAGCCAGCGAAGAAAUGAACAAAGAAAAACUGGGCCAGGCAGGCAUCAAAGGAAAUAGUCUUGCGCUCAACCAGAAAGUCUGUAAUCAUUUUAAGGGUA [U43A U49C U70A A92G],0.56
12,GUUAACGGUCAUAGGCCAUGGAAACUAGGAGCACCAUUUCGCAGCCAGUGAAGAAAUGAACAAAGAAAAUCAGGGCCAGGCAGGCAUCAAAAGAAAUAGUCUUGCGCUCAACCAGAAAGUCUGUAAUCACUUUAAGGGUA [U43A U72A U130C],0.14
13,GUUAACGGUCAUAGGCCAUGGAAACUAGGAGCACCAUUUCGCCGCCAGUGAAGAGAUGAACAAAGAAAAUCUGGGCCAGGCAGACAUCAAAAGAAAUAGUCUUGCGCUCAACCAGAAAGUCUGUAAUCAUUUUAAGGGUA [U43C A55G G84A],2.62
14,GUUAACGGUCAUAGGCCAUGGAAACUAGGAGCACCAUUUCGCCGCCAGUGAAGAAAUGGACAAAGAAAAUCUGAGCCAGGCAGGCAUCGAAAGAAAUAGUCUUGCGCUCAACCAGAAAGUCUGUAACCAUUUUAAGGGUA [U43C A59G G74A A89G U127C],0.06
15,GUUAACGGUCAUAGGCCAUGGAAACUAGGAGCACCAUUUCGCCGCCAGUGGAGAAAUGAACAAAGAAAAUCUGGGCCAGGCAGGCAUCAAAAGAAAUAGUCUUGCGCUCAACCAGAAAGUCUGUAAUCACUUUAAGGGUA [U43C A51G U130C],1.31
16,GUUAACGGUCAUAGGCCAUGGAAACUAGGAGCACCAUUUCGCAGCCAGUGAAGAAAUGAACAAAGAAAAUCUGGGCCAGGCAGGCAUCAAAAGAAAUAGUCUUGCGCUCAACCAGAAAGACUGUAAUCAUUUAAAGGGUA [U43A U120A U133A],2.08
17,GUUAACGGUCAUAGGCCAUGGAAACUAGGAGCACCAUUUCGCCGCCAGUGAAGAAAUGGACAAAGAAAAUCUGGGCCAGGCAGGCAUCAAAGGAAAUAGUCUUGCGCUCAACCAGAAAGUAUGUAAUCACUUUAAGGGUA [U43C A59G A92G C121A U130C],1.94
18,GUUAACGGUCAUAGGCCAUGGAAACUAGGAGCACCAUUUCGCCGCCAGUGUAGAAAUGAACAAAGAAAAUCUGGGCCAGGCAGGCAUCAAAAGAAUUAGUCUUGCGCUCAUCCAGAGAGUCUGUAAUCAUUAUAAGGGUA [U43C A51U A96U A111U A117G U132A],0.02
19,GUUAACGGUCAUAGGCCAUGGAAACUAGGAGCACCAUUUCGCAGCCAGUGAAGAAAUGAACAAAGAAAAUCUGGGCCAGGCAGGCACCGAAAGAAAUAGUCUUGCGCUCAACCAGAAAGUCUGUAAUCAUUUUAAGGGUA [U43A U87C A89G],1.51
20,GUUAACGGUCAUAGGCCAUGGAAACUAGGAGCACCAUUUCGCCGCCAGUGAGGAAAUGAACAAAGAAAAUCCGGGCCAGGCAGGCAUCAAAAGAAAUAGUCUUGCGCUCAACCAGAAAGUCCGUAAUCAUUUUAAGGGUA [U43C A52G U72C U122C],0.13
